The other results are listed elsewhere or left out.
Each sequence was assayed against T1, MBP-FoxP1dN (Mus musculus, UniProt P58462 326-579) (assay: PD-seq (MBP pull-down with sequencing); 20 mM Tris-HCl pH 7.5, 100 mM NaCl, 1.5 mM MgCl2, 0.4 uM protein, 0.1 uM dsDNA library, 30 min, room temperature, amylose pull-down; high values mean tight binding). Details: protein: recombinant; tags: His6-MBP; chain copies: 2; dsDNA, one strand shown.
T1 sequence: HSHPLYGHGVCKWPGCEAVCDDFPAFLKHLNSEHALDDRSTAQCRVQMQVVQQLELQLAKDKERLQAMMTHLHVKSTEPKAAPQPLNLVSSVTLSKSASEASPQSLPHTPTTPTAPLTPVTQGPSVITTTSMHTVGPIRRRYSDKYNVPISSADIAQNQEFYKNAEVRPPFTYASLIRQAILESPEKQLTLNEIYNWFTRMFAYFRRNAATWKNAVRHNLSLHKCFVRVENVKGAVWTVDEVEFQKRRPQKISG
Summary of the method: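 Amylose resin was used to capture complexes formed during 30 min at room temperature in Tris pH 7.5 buffer with NaCl and MgCl2 between 0.4 µM His6-MBP-tagged mouse FoxP3 or FoxP1 fragment lacking the N-terminus, expressed in E. coli, and 0.1 µM Klenow-filled double-stranded degenerate DNA library. After three washes, the DNA was released with proteinase K, barcoded by PCR and sequenced on Illumina. Binding is pooled-replicate reads-per-million enrichment, pull-down over input.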

Compared with “GATGATTGTTCTCCCAGCTGATGAATTAATCTCCTCGAGTAAACAAATTTTCCTAATCTTTCTGTTCAAGCGCCATCTAC”, “GATGATTGTTCTCCCAGCTGATGAATTGAACGCATCGAGTAAACAAATTTTCCTAATCTTTCTGTTCAAGCGCCATCTAC” is higher in binding signal: 0.857 RPM ratio (pull-down/input) for the first, 1.14 RPM ratio (pull-down/input) for the second.

First: GATGATTGTTCTCCCAGCTGATGAATTGTCCATTTCGAGTAAACAAATTTTCCTAATCTTTCTGTTCAAGCGCCATCTAC
Second: GATGATTGTTCTCCCAGCTGATGAATTCCGGCCGTCGAGTAAACAAATTTTCCTAATCTTTCTGTTCAAGCGCCATCTAC
The binding signal of the first is higher: 1.05 RPM ratio (pull-down/input) for the first, 0.798 RPM ratio (pull-down/input) for the second.

Compared with “GATGATTGTTCTCCCAGCTGATGAATTATGGCCTTCGAGTAAACAAATTTTCCTAATCTTTCTGTTCAAGCGCCATCTAC”, “GATGATTGTTCTCCCAGCTGATGAATTGTGCAGCTCGAGTAAACAAATTTTCCTAATCTTTCTGTTCAAGCGCCATCTAC” is lower in binding signal: 1.03 RPM ratio (pull-down/input) for the first, 0.932 RPM ratio (pull-down/input) for the second.

Going from “GATGATTGTTCTCCCAGCTGATGAATTTGGCTAATCGAGTAAACAAATTTTCCTAATCTTTCTGTTCAAGCGCCATCTAC” to “GATGATTGTTCTCCCAGCTGATGAATTGTATCTATCGAGTAAACAAATTTTCCTAATCTTTCTGTTCAAGCGCCATCTAC”, the binding signal rises from 0.962 RPM ratio (pull-down/input) to 1.41 RPM ratio (pull-down/input).

First: GATGATTGTTCTCCCAGCTGATGAATTCGCTGATTCGAGTAAACAAATTTTCCTAATCTTTCTGTTCAAGCGCCATCTAC
Second: GATGATTGTTCTCCCAGCTGATGAATTAAGCACATCGAGTAAACAAATTTTCCTAATCTTTCTGTTCAAGCGCCATCTAC
The binding signal of the first is lower: 0.903 RPM ratio (pull-down/input) for the first, 1.15 RPM ratio (pull-down/input) for the second.

Going from “GATGATTGTTCTCCCAGCTGATGAATTATCCCTGTCGAGTAAACAAATTTTCCTAATCTTTCTGTTCAAGCGCCATCTAC” to “GATGATTGTTCTCCCAGCTGATGAATTTGCCGAATCGAGTAAACAAATTTTCCTAATCTTTCTGTTCAAGCGCCATCTAC”, the binding signal falls from 0.907 RPM ratio (pull-down/input) to 0.887 RPM ratio (pull-down/input).

Compared with “GATGATTGTTCTCCCAGCTGATGAATTAGGGCACTCGAGTAAACAAATTTTCCTAATCTTTCTGTTCAAGCGCCATCTAC”, “GATGATTGTTCTCCCAGCTGATGAATTTCAATACTCGAGTAAACAAATTTTCCTAATCTTTCTGTTCAAGCGCCATCTAC” is lower in binding signal: 0.9 RPM ratio (pull-down/input) for the first, 0.865 RPM ratio (pull-down/input) for the second.

Going from “GATGATTGTTCTCCCAGCTGATGAATTGTCTCAATCGAGTAAACAAATTTTCCTAATCTTTCTGTTCAAGCGCCATCTAC” to “GATGATTGTTCTCCCAGCTGATGAATTTGCGATGTCGAGTAAACAAATTTTCCTAATCTTTCTGTTCAAGCGCCATCTAC”, the binding signal falls from 1.15 RPM ratio (pull-down/input) to 1.01 RPM ratio (pull-down/input).

First: GATGATTGTTCTCCCAGCTGATGAATTGTCCATCTCGAGTAAACAAATTTTCCTAATCTTTCTGTTCAAGCGCCATCTAC
Second: GATGATTGTTCTCCCAGCTGATGAATTTTATAGCTCGAGTAAACAAATTTTCCTAATCTTTCTGTTCAAGCGCCATCTAC
The binding signal of the first is higher: 0.951 RPM ratio (pull-down/input) for the first, 0.946 RPM ratio (pull-down/input) for the second.

Going from “GATGATTGTTCTCCCAGCTGATGAATTAAGTTCGTCGAGTAAACAAATTTTCCTAATCTTTCTGTTCAAGCGCCATCTAC” to “GATGATTGTTCTCCCAGCTGATGAATTATCGTCCTCGAGTAAACAAATTTTCCTAATCTTTCTGTTCAAGCGCCATCTAC”, the binding signal rises from 0.901 RPM ratio (pull-down/input) to 0.977 RPM ratio (pull-down/input).

Compared with “GATGATTGTTCTCCCAGCTGATGAATTCGCTCTCTCGAGTAAACAAATTTTCCTAATCTTTCTGTTCAAGCGCCATCTAC”, “GATGATTGTTCTCCCAGCTGATGAATTGCCAATGTCGAGTAAACAAATTTTCCTAATCTTTCTGTTCAAGCGCCATCTAC” is higher in binding signal: 0.814 RPM ratio (pull-down/input) for the first, 0.943 RPM ratio (pull-down/input) for the second.

First: GATGATTGTTCTCCCAGCTGATGAATTGTATGGGTCGAGTAAACAAATTTTCCTAATCTTTCTGTTCAAGCGCCATCTAC
Second: GATGATTGTTCTCCCAGCTGATGAATTCTGCGGATCGAGTAAACAAATTTTCCTAATCTTTCTGTTCAAGCGCCATCTAC
The binding signal of the first is higher: 0.969 RPM ratio (pull-down/input) for the first, 0.85 RPM ratio (pull-down/input) for the second.

Going from “GATGATTGTTCTCCCAGCTGATGAATTAGCTAAGTCGAGTAAACAAATTTTCCTAATCTTTCTGTTCAAGCGCCATCTAC” to “GATGATTGTTCTCCCAGCTGATGAATTAGATGGTTCGAGTAAACAAATTTTCCTAATCTTTCTGTTCAAGCGCCATCTAC”, the binding signal rises from 0.909 RPM ratio (pull-down/input) to 0.928 RPM ratio (pull-down/input).

First: GATGATTGTTCTCCCAGCTGATGAATTGCTCTTTTCGAGTAAACAAATTTTCCTAATCTTTCTGTTCAAGCGCCATCTAC
Second: GATGATTGTTCTCCCAGCTGATGAATTCCTAAGGTCGAGTAAACAAATTTTCCTAATCTTTCTGTTCAAGCGCCATCTAC
The binding signal of the first is higher: 1.2 RPM ratio (pull-down/input) for the first, 0.703 RPM ratio (pull-down/input) for the second.

Going from “GATGATTGTTCTCCCAGCTGATGAATTACTGATGTCGAGTAAACAAATTTTCCTAATCTTTCTGTTCAAGCGCCATCTAC” to “GATGATTGTTCTCCCAGCTGATGAATTAAGATGATCGAGTAAACAAATTTTCCTAATCTTTCTGTTCAAGCGCCATCTAC”, the binding signal falls from 1.37 RPM ratio (pull-down/input) to 0.992 RPM ratio (pull-down/input).

Compared with “GATGATTGTTCTCCCAGCTGATGAATTCTGATCGTCGAGTAAACAAATTTTCCTAATCTTTCTGTTCAAGCGCCATCTAC”, “GATGATTGTTCTCCCAGCTGATGAATTAAGAGCATCGAGTAAACAAATTTTCCTAATCTTTCTGTTCAAGCGCCATCTAC” is higher in binding signal: 0.813 RPM ratio (pull-down/input) for the first, 1.07 RPM ratio (pull-down/input) for the second.

Compared with “GATGATTGTTCTCCCAGCTGATGAATTTAGTGGGTCGAGTAAACAAATTTTCCTAATCTTTCTGTTCAAGCGCCATCTAC”, “GATGATTGTTCTCCCAGCTGATGAATTGTTTCAATCGAGTAAACAAATTTTCCTAATCTTTCTGTTCAAGCGCCATCTAC” is higher in binding signal: 0.851 RPM ratio (pull-down/input) for the first, 1.25 RPM ratio (pull-down/input) for the second.

First: GATGATTGTTCTCCCAGCTGATGAATTCAGACATTCGAGTAAACAAATTTTCCTAATCTTTCTGTTCAAGCGCCATCTAC
Second: GATGATTGTTCTCCCAGCTGATGAATTCCCGGAGTCGAGTAAACAAATTTTCCTAATCTTTCTGTTCAAGCGCCATCTAC
The binding signal of the first is higher: 0.89 RPM ratio (pull-down/input) for the first, 0.755 RPM ratio (pull-down/input) for the second.

First: GATGATTGTTCTCCCAGCTGATGAATTTCATCTTTCGAGTAAACAAATTTTCCTAATCTTTCTGTTCAAGCGCCATCTAC
Second: GATGATTGTTCTCCCAGCTGATGAATTAATTGCCTCGAGTAAACAAATTTTCCTAATCTTTCTGTTCAAGCGCCATCTAC
The binding signal of the first is lower: 0.887 RPM ratio (pull-down/input) for the first, 1 RPM ratio (pull-down/input) for the second.

Compared with “GATGATTGTTCTCCCAGCTGATGAATTACTAGCATCGAGTAAACAAATTTTCCTAATCTTTCTGTTCAAGCGCCATCTAC”, “GATGATTGTTCTCCCAGCTGATGAATTTGTGCGGTCGAGTAAACAAATTTTCCTAATCTTTCTGTTCAAGCGCCATCTAC” is lower in binding signal: 1.23 RPM ratio (pull-down/input) for the first, 0.941 RPM ratio (pull-down/input) for the second.
